Test results reported in PubChem BioAssay AID485294 (National Center for Advancing Translational Sciences (NCATS), 2010).
Hit rate of the full screen: of about 370,000 compounds, about 150 (0.041%) were called active. Inconclusive means that the source gave no clear call. Such entries were picked first, then a sample of the others. Calls come from the whole dose curve; as a rule, active = well fitted inhibition curve with a large enough effect; inconclusive = small, poorly fitted or top-dose-only effect; inactive = flat fitted curve, though single readings scatter. Potencies of inconclusive entries are left out as doubtful fits.
Note: nearly all actives have a fitted effect of over 25% in size.
Potency is the fitted concentration of half-maximal effect; tags give direction and shape of the fitted curve.

The molecules below were run against Beta-lactamase (Escherichia coli (strain K12)) (UniProt P00811) (assay: qHTS Inhibitors of AmpC Beta-Lactamase (assay with detergent)). Conditions: AmpC hydrolysis of nitrocefin, absorbance 480 nm, 0.01% Triton; series mostly up to 114 µM.
Sequence of UniProt P00811 (P00811 whole entry, looked up): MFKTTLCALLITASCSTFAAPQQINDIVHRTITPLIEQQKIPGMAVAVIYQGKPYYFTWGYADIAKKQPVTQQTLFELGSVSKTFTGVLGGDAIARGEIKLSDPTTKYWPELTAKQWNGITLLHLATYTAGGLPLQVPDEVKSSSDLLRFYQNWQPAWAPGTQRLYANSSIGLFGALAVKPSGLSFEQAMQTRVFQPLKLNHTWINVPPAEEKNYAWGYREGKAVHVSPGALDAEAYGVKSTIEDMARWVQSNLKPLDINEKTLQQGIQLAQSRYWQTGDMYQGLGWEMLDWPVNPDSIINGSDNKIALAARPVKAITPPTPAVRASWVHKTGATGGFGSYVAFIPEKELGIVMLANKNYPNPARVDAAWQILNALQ
Method in brief: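 AmpC (5.3 nM in the dispensed reagent) in 20 mM phosphate pH 7.0 with 0.01% (detergent screen) or 0.0001% Triton X-100 was preincubated with compounds for 15 min at room temperature. Nitrocefin was then added from an 800 uM solution, and hydrolysis was followed at 480 nm.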
In the case of `CN1CCN(S(=O)(=O)c2ccc(NC(=O)c3cccc(F)c3)cc2)CC1`, the Potency is reported as “inactive”.
For `Cc1nn(C)cc1CNC(=O)Nc1ccc(Cl)cc1`, the Potency was inconclusive [inhibitor, partial curve, poor fit].
For `CC1=CC(C)(C)N2C(=O)C3(N=C(N)NC(Nc4ccccc4)=N3)c3cc(C)cc1c32` (configuration not stated), the Potency was “inactive”.
`CC(C)(C)Cc1nnc(NC(=O)c2ccco2)s1` was tested, and the Potency was inconclusive [inhibitor, single point].
For `CC(C)(C)NC(=O)Cn1ccc(=N)c2ccccc21`, the Potency was inconclusive [inhibitor, partial curve, poor fit].
`COc1ccc(NC(=O)COC(=O)CNS(=O)(=O)c2ccc(F)c(F)c2F)cc1OC` was tested, and the Potency was inconclusive [inhibitor, partial curve, poor fit].
For `COc1ccc(Cc2nnc(SCC(=O)N3CCc4ccccc4C3)o2)cc1`, the Potency was inconclusive [inhibitor, full curve, poor fit].
`CN1CCCC(OC(=O)c2ccc(Cl)cc2)C1` (configuration not stated) was tested, and the Potency was “inactive”.
In the case of `CNCCCOc1ccc2c(c1)CCC2`, the Potency is reported as “inactive”.
For `Cc1nonc1NCn1nnc2ccccc21`, the Potency was “inactive”.
With `Cc1cc(SC(C)C(=O)NCC(=O)Nc2ccc(F)c(F)c2F)nc2ccccc12` (configuration not stated) the Potency was inconclusive [inhibitor, full curve, poor fit].
`COc1ccc(CCNC(=O)C2CCN(C(=O)c3ccc(Br)cc3)CC2)cc1OC` was tested, and the Potency was inconclusive [inhibitor, full curve, poor fit].
In the case of `COCCn1c(SCC(=O)Nc2ccc(S(=O)(=O)N(C)C)cc2)nc2ccccc21`, the Potency is reported as “inactive”.
In the case of `Cc1cccnc1NC(=S)NC(=O)c1oc2ccccc2c1C`, the Potency is reported as “inactive”.
`c1cnn(-c2nc(N3CCOCC3)nc(N3CCOCC3)n2)c1` was tested, and the Potency was inconclusive [inhibitor, full curve].
With `O=C(Nc1cccnc1)c1cc(-c2cccc(Br)c2)nc2ccccc12` the Potency was “inactive”.
With `CN(c1ccccc1)S(=O)(=O)c1ccc(NC(=S)NC(=O)C2CC2)cc1` the Potency was inconclusive [inhibitor, full curve].
`O=C(Nc1ccc2c(c1)ncn2C1CCCCC1)c1ccco1` was tested, and the Potency was inconclusive [inhibitor, full curve, poor fit].
In the case of `Cc1nn(C)c(C)c1S(=O)(=O)N(CC(=O)N1CCc2ccccc21)c1ccc(C(C)C)cc1`, the Potency is reported as inconclusive [inhibitor, full curve, poor fit].
In the case of `CC(NC(=O)C1CCC(CNc2c(N3CCOCC3)c(=O)c2=O)CC1)c1ccccc1` (configuration not stated), the Potency is reported as inconclusive [inhibitor, full curve].
In the case of `O=c1[nH]c(=O)n(Cc2ccccc2)c2nc(-c3ccco3)cc(C(F)(F)F)c12`, the Potency is reported as inconclusive [inhibitor, partial curve, poor fit].
In the case of `CC1Cc2ccccc2N1C(=O)CSc1nnc(-c2ccc(S(=O)(=O)N3CCCC3)cc2)n1C` (configuration not stated), the Potency is reported as inconclusive [inhibitor, full curve].
In the case of `COc1ccccc1CNC(=O)CN1C(=O)CCn2nc(-c3ccccc3)cc21`, the Potency is reported as “inactive”.
In the case of `CC(C)N(C1=CC(=O)OC12CCCCC2)C(C)C`, the Potency is reported as “inactive”.
With `CCOC(=O)C1CCCN(c2c(NCc3ccco3)c(=O)c2=O)C1` (configuration not stated) the Potency was inconclusive [inhibitor, full curve, poor fit].
With `O=C(N[C@@H](Cc1ccccc1)C(=O)NC1CCCCCC1)c1ccco1` the Potency was “inactive”.
`Cc1cc(C)nc(NS(=O)(=O)c2ccc(N)cc2)n1` was tested, and the Potency was inconclusive [inhibitor, full curve, poor fit].
With `N#CC1=C(N)Oc2ccc3ccccc3c2C1c1cccnc1` (configuration not stated) the Potency was “inactive”.
`Cc1ccccc1Cn1nc(C)c(NC(=O)C2c3ccccc3Oc3ccccc32)c1C` was tested, and the Potency was inconclusive [inhibitor, partial curve].
For `O=C1CC2(CCN(C(=O)C(=O)c3c[nH]c4ccccc34)CC2)Oc2ccccc21`, the Potency was inconclusive [inhibitor, partial curve, poor fit].
For `O=C(CN1C(=O)S/C(=C\c2ccccc2)C1=O)Nc1cc([N+](=O)[O-])ccc1O`, the Potency was inconclusive [inhibitor, single point].
`O=C(c1ccc(Cl)cc1)C1CCCN(C(=O)/C=C/c2ccccn2)C1` (configuration not stated) was tested, and the Potency was inconclusive [inhibitor, single point].
In the case of `COc1cc(CNC(=O)OCC(C)C)cc(OC)c1OC`, the Potency is reported as inconclusive [inhibitor, full curve, poor fit].
`COc1cc(CC(CC(=O)O)CC(C)OCc2ccccc2)cc(OC)c1` (configuration not stated) was tested, and the Potency was inconclusive [inhibitor, full curve, poor fit].
`CC(C)(C)C(=O)N1CCC[C@H]1C(O)(c1ccccc1)c1ccccc1` was tested, and the Potency was inconclusive [inhibitor, partial curve].
`C/C(CC(=O)NC(C)(C)C)=N\NC(=O)c1ccccc1N` was tested, and the Potency was inconclusive [inhibitor, full curve, poor fit].
With `Clc1ccc(CNc2cc(-c3ccccc3)nc3nncn23)cc1` the Potency was “inactive”.
`Cc1ccc(NS(=O)(=O)c2cc(C(=O)N3CCN(C)CC3)ccc2C)cc1` was tested, and the Potency was inconclusive [inhibitor, full curve, poor fit].
For `Cc1cc(Br)ccc1OCC(=O)NC1CCCC1`, the Potency was inconclusive [inhibitor, full curve].
`CC(C)Oc1ccc(N2CC(C(=O)OCC(=O)NCc3ccccc3)CC2=O)cc1` (configuration not stated) was tested, and the Potency was inconclusive [inhibitor, partial curve, poor fit].
In the case of `CCc1nnc(NS(=O)(=O)c2ccc(NC(=O)c3ccccc3)cc2)s1`, the Potency is reported as “inactive”.
For `CCNCc1ccc(OCc2ccccc2F)c(OC)c1`, the Potency was “inactive”.
With `CCn1nc(C)c2c(-c3ccccc3)cc(=O)n(C(C)C(=O)NCc3ccc(C)cc3)c21` (configuration not stated) the Potency was “inactive”.
For `O=C(CC1(O)C(=O)Nc2ccccc21)c1ccccc1` (configuration not stated), the Potency was inconclusive [inhibitor, full curve, poor fit].
For `Cc1cc(C)c(NC(=O)c2ccccc2CCc2ccccc2)c(C)c1`, the Potency was “inactive”.
`C=CCOc1ccc(CNC(C)(C)CO)cc1OC` was tested, and the Potency was “inactive”.
`CCCOc1ccc(C(C)=O)cc1CC(C(N)=O)C(N)=O` was tested, and the Potency was inconclusive [inhibitor, full curve].
For `O=C(Cn1ncc2c(=O)oc3ccccc3c21)NCC1COc2ccccc2O1` (configuration not stated), the Potency was “inactive”.
In the case of `CCOC(=O)CSc1nn(C)c(=S)s1`, the Potency is reported as inconclusive [inhibitor, full curve, poor fit].
In the case of `O=C(Nc1ccnn1C1CCN(C(=O)Cc2cccc(Cl)c2)CC1)C1CC1`, the Potency is reported as inconclusive [inhibitor, full curve, poor fit].
With `CC(C)(C)c1cn(-c2ccc(F)cc2)c(=S)[nH]1` the Potency was inconclusive [inhibitor, single point].
With `O=C(CSc1ccsc1[N+](=O)[O-])NCCc1ccc(Cl)cc1` the Potency was “inactive”.
In the case of `CCC(C)c1ccc(C(C)NC(=S)NCc2ccc(F)cc2)cc1` (configuration not stated), the Potency is reported as “inactive”.
In the case of `c1ccc(Nc2nc(Nc3ccccc3)nc(N3CCNCC3)n2)cc1`, the Potency is reported as inconclusive [inhibitor, partial curve].
With `CCOC(=O)c1[nH]c(C)c(C(=O)Nc2ccc(Cl)cc2)c1C` the Potency was inconclusive [inhibitor, full curve, poor fit].
With `COc1cc(CNCCc2ccc(F)cc2)ccc1OCc1ccc(Cl)nc1` the Potency was “inactive”.
`Cc1nc2ccccc2c(=O)n1-c1cc([N+](=O)[O-])cc([N+](=O)[O-])c1` was tested, and the Potency was inconclusive [inhibitor, partial curve].
`COC(=O)c1ccc(Cn2nnc3sc4c(c3c2=O)CCCC4)cc1` was tested, and the Potency was “inactive”.
`CC1=C(C(=O)OCC2CCCCC2)C(c2ccc(Cl)cc2Cl)CC(=O)N1` (configuration not stated) was tested, and the Potency was “inactive”.
For `CSc1cccc(NC(=O)Cn2cnc(S(=O)(=O)N3CCCC3)c2)c1`, the Potency was “inactive”.
With `O=[N+]([O-])c1ccccc1OCC(O)CN1CCN(CC(O)COc2ccccc2[N+](=O)[O-])CC1` (configuration not stated) the Potency was inconclusive [inhibitor, partial curve, poor fit].
In the case of `Cc1ccccc1CN1CCNC(=O)C1CC(=O)O` (configuration not stated), the Potency is reported as “inactive”.
In the case of `Cc1ccc(C)c(Cn2nnc3c(=O)[nH]c(C4CCCN(C(=O)C5CCC5)C4)nc32)c1` (configuration not stated), the Potency is reported as inconclusive [inhibitor, partial curve].
`Cc1ccc(C(=O)NC(NC(=S)Nc2ccc(S(N)(=O)=O)cc2)C(Cl)(Cl)Cl)cc1` (configuration not stated) was tested, and the Potency was inconclusive [inhibitor, full curve, poor fit].
With `CCc1ccccc1NC(=O)C(C)n1nc(-c2ccc(C)c(C)c2)ccc1=O` (configuration not stated) the Potency was “inactive”.
With `CCOC(=O)c1nc(-c2ccc(OC)c(OC)c2)cnc1C#N` the Potency was inconclusive [inhibitor, full curve, poor fit].
For `Cc1c(Cl)cccc1NC(=O)C(=O)NCC(c1cccnc1)N1CCN(c2ccccc2)CC1` (configuration not stated), the Potency was “inactive”.
`Clc1ccccc1/C=N/N1CCN(Cc2ccccc2)CC1` was tested, and the Potency was inconclusive [inhibitor, full curve, poor fit].
In the case of `O=S(=O)(NCCN1CCOCC1)c1ccc(Oc2ccccc2Cl)cc1`, the Potency is reported as “inactive”.
With `C=CCOc1ccc(/C(O)=C2\C(=O)C(=O)N(CCOC)C2c2cccnc2)cc1` (configuration not stated) the Potency was inconclusive [inhibitor, full curve].
For `CN(C)c1nc2sc3c(c2c(=O)n1C)CC(C)(C)OC3`, the Potency was inconclusive [inhibitor, full curve, poor fit].
With `Nc1nc(-c2cccnc2)nn1C(=O)COc1ccccc1` the Potency was inconclusive [inhibitor, full curve].
